US9879008B2, “2,3,4,6-tetra-substituted benzene-1,5-diamine derivatives, preparation method therefor and medicinal use thereof” (SHANGHAI HAIYAN PHARMACEUTICAL TECHNOLOGY CO., LTD., priority 2014, dated 2018)

Experiments:
[1] = target: T1, EGFR T790M/L858R double mutant EGFR kinase (Homo sapiens, UniProt P00533, L858R/T790M); conditions: ratio of enzyme IC50 values
[2] = target: T1, EGFR T790M/L858R double mutant EGFR kinase; test: biochemical

Row | Selective inhibitory activity against enzyme [IC50(EGFR WT)/IC50(T790M/L858R)] [1] | IC50 [2] | SMILES
1 | 23 | 1 nM | C=CC(=O)Nc1cc(Nc2ncc(C(F)(F)F)c(SC3CN(S(C)(=O)=O)C3)n2)c(OC)cc1N1CCC(N(C)C)CC1 [Compound J-59]
2 | 6 | 1 nM | C=CC(=O)Nc1cc(Nc2ncc(Cl)c(NC3CN(S(C)(=O)=O)C3)n2)c(OC)cc1N1CCC(N(C)C)CC1 [Compound J-60, N-(5-(5-chloro-4-(1-(methylsulfonyl)azetidine-3-amino)pyrimidine-2-amino)-2-(4-(dimethylamino)piperidine-1-yl)-4-methoxyphenyl)acrylamide]
3 | 10.1 | 18 nM | C=CC(=O)Nc1cc(Nc2ncc(Cl)c(NC3CN(C(C)=O)C3)n2)c(OC)cc1N1CCC(N(C)C)CC1 [Compound J-61]
4 | 2 | 3 nM | C=CC(=O)Nc1cc(Nc2ncc(F)c(NC3CN(S(C)(=O)=O)C3)n2)c(OC)cc1N1CCC(N(C)C)CC1 [Compound J-62]
5 | 2 | 1 nM | C=CC(=O)Nc1cc(Nc2ncc(Cl)c(N[C@@H]3CCCN(CCF)C3)n2)c(OC)cc1N1CCC(N(C)C)CC1 [Compound J-67]
6 | 2.9 | 14 nM | C=CC(=O)Nc1cc(Nc2ncc(Cl)c(N[C@H]3CCCN(CCF)C3)n2)c(OC)cc1N1CCC(N(C)C)CC1 [Compound J-68]
7 | 6.2 | 17 nM | C=CC(=O)Nc1cc(Nc2ncc(Cl)c(NC3CCN(S(C)(=O)=O)CC3)n2)c(OC)cc1N1CCC(N(C)C)CC1 [Compound J-69]
8 | 14 | 1 nM | C=CC(=O)Nc1cc(Nc2ncc(Cl)c(OC3CN(S(C)(=O)=O)C3)n2)c(OC)cc1N1CCN(C)CC1 [Compound J-70, N-(5-(5-chloro-4-(1-(methylsulfonyl)azetidine-3-oxy)pyrimidine-2-amino)-4-methoxy-2-(4-methylpiperazine-1-yl)phenyl)acrylamide]
9 | 5.8 | 4 nM | C=CC(=O)Nc1cc(Nc2ncc(Cl)c(OC3CN(S(C)(=O)=O)C3)n2)c(OC)cc1OCCN(C)C [Compound J-71]
10 | 8 | 3 nM | C=CC(=O)Nc1cc(Nc2ncc(Cl)c(N(C)C3CN(S(C)(=O)=O)C3)n2)c(OC)cc1N1CCC(N(C)C)CC1 [Compound J-73]
11 | 6.5 | 33 nM | C=CC(=O)Nc1cc(Nc2ncc(Cl)c(NC3CC3)n2)c(OC)cc1N1CCC(N(C)C)CC1 [Compound J-74]
12 | 9.9 | 47 nM | C=CC(=O)Nc1cc(Nc2ncc(Cl)c(OC3(C)CN(S(C)(=O)=O)C3)n2)c(OC)cc1N1CCC(N(C)C)CC1 [Compound J-75]
13 | 14 | 1 nM | C=CC(=O)Nc1cc(Nc2ncc(Cl)c(OC3CN(S(C)(=O)=O)C3)n2)ccc1N1CCC(N(C)C)CC1 [Compound J-76]
